Assay results published in article PMC4363092 (Journal of medicinal chemistry, 2014).

Tested on: NPP1,3 and NTPDase1,2,3,8
Conditions: pooled over the six enzymes

SMILES	hydrolysis by NPP1,3 and NTPDase1,2,3,8
Nc1ncnc2c1ncn2[C@@H]1O[C@H](COP(=O)(O)CP(=O)(O)OP(O)(O)=S)[C@@H](O)[C@H]1O [compound 3]	< 5%
Nc1ncnc2c1nc(S)n2[C@@H]1O[C@H](COP(=O)(O)OP(=O)(O)OP(=O)(O)O)[C@@H](O)[C@H]1O [compound 4]	< 5%
